Source: PubChem BioAssay AID1508623 (National Center for Advancing Translational Sciences (NCATS), 2021)
The campaign covered roughly 48,000 compounds. About 450 (0.94%) were called active. This list was built around the results that the source calls inconclusive (neither active nor inactive); the mix of calls is not that of the screen. Calls come from the whole dose curve; as a rule, active = well fitted inhibition curve with a large enough effect; inconclusive = small, poorly fitted or top-dose-only effect; inactive = no such curve, though single readings can be large or run the other way. A potency beside an inconclusive call is a rough fit, not a confirmed value.

assay: Primary qHTS for Identification of Small Molecule Inhibitors of Huntingtin Promoter Activity; conditions: HEK293 HTT promoter firefly luciferase reporter (activity 0% = vehicle and -100% = no light), 24 h; series mostly up to 57.5 µM; note: nearly all actives have a fitted effect of over 50% in size
Method in brief: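 HEK293 luciferase promoter-reporter cells (2,500/well) plated 24 h, then compounds added at up to 57.5 uM final for 24 h at 37 °C. Firefly luminescence by Dual-Glo, normalized to vehicle (0%) and zero RLU (-100%).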
Potency is the fitted concentration of half-maximal effect; tags give direction and shape of the fitted curve.

SMILES | Potency
O=C(CCC1N=C2c3ccccc3N=C(SCc3ccccc3F)N2C1=O)NC1CCCCC1 (stereo not drawn) | inconclusive: 39.8 µM [inhibitor, single point]
Fc1ccc(-c2nc(Nc3cccc(Cl)c3)nc3c2COc2ccccc2-3)cc1 | inconclusive: 17.8 µM [inhibitor, partial curve, poor fit]
COc1ccc(N2CCN(S(=O)(=O)c3ccc4c(c3)CC(C)N4C(C)=O)CC2)cc1 (stereo not drawn) | inconclusive: 14.1 µM [inhibitor, partial curve, poor fit]
O=C(O)c1ccc2c(c1)nc(Nc1cccc(Cl)c1)c1ccncc12 | inconclusive: 1.93 µM [inhibitor, full curve]
CC1=C(C(=O)OC2CCCCCC2)C(c2c(F)cccc2Cl)CC(=O)N1 (stereo not drawn) | inconclusive: 35.5 µM [inhibitor, single point]
CCOC(=O)c1c(Nc2ccc(C)cc2)nnc(-c2ccccc2)c1-c1ccccc1 | inconclusive: 28.2 µM [inhibitor, single point]
COc1ccc(NCc2cc3cc4c(cc3n(CC(=O)Nc3ccc(F)cc3F)c2=O)OCO4)cc1 | inconclusive: 22.4 µM [inhibitor, partial curve, poor fit]
CCc1ccccc1NS(=O)(=O)c1ccc(OC)c2ncccc12 | inactive
CCN(CC)c1ccc(C(=C2C=CC(=[N+](CC)CC)C=C2)c2cc(S(=O)(=O)O)ccc2S(=O)(=O)[O-])cc1 | inconclusive: 14.1 µM [inhibitor, partial curve]
COC(=O)CCSc1nc2sc3c(c2c(=O)n1Cc1ccccc1)CCC(C(C)(C)C)C3 (stereo not drawn) | inconclusive: 28.2 µM [inhibitor, partial curve, poor fit]
CCC(C(=O)Nc1ccc(C(=O)OC)cc1)n1c(=O)c(-c2ccccc2NC(C)=O)nc2ccccc21 (stereo not drawn) | inconclusive: 31.6 µM [inhibitor, partial curve, poor fit]
Cc1ccc(NC(=O)c2cc(S(=O)(=O)NCCC3=CCCCC3)ccc2F)cc1F | active: 11.2 µM
COc1ccc(Cl)cc1NC(=O)c1ccc2nc(Cc3ccccc3)oc2c1 | inconclusive: 39.8 µM [inhibitor, single point]
Cc1ccc(-n2nc(C(=O)N3CCN(c4cc(Cl)ccc4C)CC3)c(=O)n(C)c2=O)cc1 | inconclusive: 35.5 µM [inhibitor, single point]
CCc1ccc(C(=O)c2cn(CC(=O)Nc3ccc(F)c(F)c3)c3cc(OC)c(OC)cc3c2=O)cc1 | inconclusive: 35.5 µM [inhibitor, partial curve, poor fit]
COc1cc(NC(=O)CCn2c(-c3ccccc3)cc(C(C)=O)c2C)cc(OC)c1 | inconclusive: 10 µM [inhibitor, partial curve]
Cc1ccc(Cn2c(=O)c3cccnc3n(CC(=O)Nc3cccc(C(F)(F)F)c3)c2=O)cc1 | inconclusive: 39.8 µM [inhibitor, single point]
CCc1cccc(NC(=O)Nc2ccc3c(c2)N(C)C(=O)c2ccccc2S3)c1 | active: 31.6 µM
CN(C(=O)C1CCCN(c2ncnc3c2nc2n3CCCCC2)C1)c1ccccc1F (stereo not drawn) | inconclusive: 35.5 µM [inhibitor, partial curve, poor fit]
Cc1c(Cl)cccc1Nc1nc2ccc(C(=O)c3ccccc3)cc2n2cnnc12 | inconclusive: 15.8 µM [inhibitor, partial curve]

SMILES | Potency
COc1ccc2c(c1)Cc1sc(NC(=O)c3cccc(Br)c3)nc1-2 | inactive
CCSc1nc2c([nH]c3ccccc32)c(=O)n1-c1ccc(F)cc1 | inactive
Cc1cccc(C(C)C)c1NC(=O)C(NS(=O)(=O)c1cccc2nsnc12)c1ccccc1 (stereo not drawn) | inconclusive: 3.16 µM [inhibitor, partial curve, poor fit]
Nc1c2ccccc2nc2ccccc12 | inconclusive: 17.8 µM [inhibitor, partial curve, poor fit]
COc1ccc(OCc2nc(-c3ccc(-n4cccc4)cc3)no2)cc1 | inactive
CN1C(=O)c2ccccc2Sc2ccc(NC(=O)N3CCN(c4ccccc4)CC3)cc21 | active: 25.1 µM
COc1ccc(-n2nnnc2C2CCN(S(=O)(=O)c3ccc(C)cc3)CC2)cc1 | inconclusive: 35.5 µM [inhibitor, single point]
CC1=C(c2ccc(C)cc2)S(=O)(=O)N(Cc2ccc(C(=O)Nc3ccc(C)c(F)c3)cc2)C1=O | inconclusive: 31.6 µM [inhibitor, partial curve, poor fit]
CCCSc1nc(-c2ccccc2)[nH]c1S(=O)(=O)c1ccc(C)cc1 | inconclusive: 20 µM [inhibitor, partial curve, poor fit]
CC1=Nc2cc(C(=O)N3CCC(C)CC3)ccc2Sc2ccc(Cl)cc21 | inconclusive: 25.1 µM [inhibitor, single point]
O=C1c2ccccc2CCc2ccccc21 | inactive
CCc1ccc(NC(=O)C2CCCN2S(=O)(=O)c2ccc3c(c2)CCCC(=O)N3)cc1 (stereo not drawn) | inconclusive: 28.2 µM [inhibitor, partial curve, poor fit]
COc1ccc(CCNC(=O)c2ccc(Cn3c(=O)c4ccccc4n(Cc4cccc(F)c4)c3=O)cc2)cc1OC | inconclusive: 22.4 µM [inhibitor, partial curve, poor fit]
COc1ccc(-n2nnnc2C2CCN(S(=O)(=O)c3ccc(NC(C)=O)cc3)CC2)cc1 | inconclusive: 12.6 µM [inhibitor, partial curve, poor fit]
CC(C)c1ccc(C2NC(=O)c3n[nH]c(-c4cccs4)c32)cc1 (stereo not drawn) | inconclusive: 39.8 µM [inhibitor, single point]
COc1ccc(Cl)cc1S(=O)(=O)NCc1ccc2c(c1)CCN2C(=O)c1cccc(C)c1 | inconclusive: 22.4 µM [inhibitor, single point]
CCOC(=O)c1ccc(N2C(=O)c3n[nH]c(-c4ccco4)c3C2c2cccc(OC)c2)cc1 (stereo not drawn) | inconclusive: 39.8 µM [inhibitor, single point]
Cc1oc(-c2ccc(C(=O)NCc3cccc(F)c3)cc2)nc1COc1ccccc1 | inconclusive: 11.2 µM [inhibitor, partial curve]
CCn1c(C(=O)N2CCC(C(=O)NCCc3ccc(C)cc3)CC2)cc2sccc21 | inconclusive: 31.6 µM [inhibitor, single point]
CCOC(=O)C1CCCN(C(=O)c2ccc3c(c2)sc2nc(-c4ccc(CC)cc4)cn23)C1 (stereo not drawn) | inconclusive: 10 µM [inhibitor, partial curve, poor fit]

SMILES | Potency
COc1ccccc1C(=O)Nc1cccc(C(=O)OCc2cc(=O)n3ccsc3n2)c1 | inactive
Cc1ccc(S(=O)(=O)N(CC(=O)Nc2ccc(Cl)cc2Cl)c2ccccc2C)cc1 | inconclusive: 35.5 µM [inhibitor, single point]
Cc1cccc(NS(=O)(=O)c2ccc3c(c2)CC(C)N3C(=O)C2CCC2)c1C (stereo not drawn) | inconclusive: 17.8 µM [inhibitor, partial curve, poor fit]
CCOc1ccc(N2CC(c3nc4ccccc4n3CCOc3ccccc3OC)CC2=O)cc1 (stereo not drawn) | inconclusive: 28.2 µM [inhibitor, partial curve, poor fit]
COC(=O)c1nc(Cl)c(Cl)nc1N | inconclusive: 1.41 µM [inhibitor, full curve, poor fit]
CCOc1ccc(CCNC(=O)CS(=O)(=O)Cc2nc(-c3ccc(OC)cc3)oc2C)cc1 | inconclusive: 28.2 µM [inhibitor, single point]
COc1ccc(-c2nc(CSCC(=O)N3CCN(c4cc(Cl)ccc4C)CC3)c(C)o2)cc1 | active: 12.6 µM
CCN(CC)c1ccc(NC(=O)c2cnn(-c3ccccc3)c2-n2cccc2)c(C)c1 | inconclusive: 14.1 µM [inhibitor, partial curve, poor fit]
Cc1ccc(Cn2c(C)c3cnn(CC(=O)NCc4ccccc4)c(=O)c3c2C)cc1 | inconclusive: 22.4 µM [inhibitor, partial curve, poor fit]
O=C(NCCCN1CCCCCC1)c1ccc2c(c1)sc1nc(-c3ccccc3)cn12 | inconclusive: 8.91 µM [inhibitor, partial curve, poor fit]
Cc1nc2cc(-c3ccccc3)nn2c(C)c1CCC(=O)Nc1ccc(F)cc1F | inconclusive: 4.47 µM [inhibitor, partial curve, poor fit]
COc1ccc(NC(=O)CC2C(=O)N(c3ccc(OC)cc3)C(=O)N2CCC2=CCCCC2)cc1 (stereo not drawn) | inconclusive: 39.8 µM [inhibitor, partial curve, poor fit]
CN(C)C(=O)[C@H](O)[C@H](Cc1ccccc1)NC(=O)c1cc2cc(Cl)ccc2[nH]1 | inconclusive: 17.2 µM [inhibitor, partial curve, poor fit]
CC(=O)c1ccc(N2CCN(S(=O)(=O)c3ccc(-c4coc(C)n4)cc3)CC2)cc1 | inconclusive: 20 µM [inhibitor, single point]
CCN(C(=O)C1CCN(S(=O)(=O)c2cc(Br)cc3c2N(C(C)=O)CC3)CC1)c1cccc(C)c1 | inactive
CC(C)(C)c1ccc(C(=O)NCC(c2cccnc2)N2CCc3ccccc3C2)cc1 (stereo not drawn) | inconclusive: 28.2 µM [inhibitor, single point]
O=C(Nc1ccc2nc(SCC(=O)N3CCOCC3)sc2c1)c1cccc(Br)c1 | inconclusive: 31.6 µM [inhibitor, single point]
O=C(NCc1c(-n2cccc2)sc2c1CCCC2)Nc1cccc(C(F)(F)F)c1 | inconclusive: 28.2 µM [inhibitor, partial curve, poor fit]
